Test results taken from PubChem BioAssay AID686979 (National Center for Advancing Translational Sciences (NCATS), 2013).
The campaign covered roughly 420,000 compounds. About 50,000 (12%) were called active. The shares of active, inactive and inconclusive entries below differ from those in the screen. The call rests on the fitted dose curve; in most records, active means well fitted inhibition curve with a large enough effect; inconclusive means small, poorly fitted or top-dose-only effect; inactive means flat fitted curve, though single readings scatter. No potency is given beside an inconclusive call; the fits are too rough.

Experiment: qHTS for Inhibitors of human tyrosyl-DNA phosphodiesterase 1 (TDP1): qHTS in cells in presence of CPT; further: nearly all actives have a fitted effect of over 55% in size
Conditions: chicken DT40 Tdp1-/-;hTDP1 cells + 20 nM CPT, ATP luminescence, 48 h; activity change, negative = growth inhibition: at 46.2 µM (top of the series) unless noted
Procedure, shortened: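 Chicken DT40 Tdp1-/- cells stably complemented with human TDP1 were seeded at 400 cells/well in medium containing 20 nM camptothecin, exposed to pin-transferred compounds, and grown at 37 °C for at least 48 hr. Viability was read as ATP luminescence.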
On the % scale 0 is the no-effect control and ±100 the full control effect; potency means the concentration at half of the fitted maximal effect; tags describe the fitted curve by direction and shape.

Compound	Potency	activity change, negative = growth inhibition
Cc1cc(Br)cc(C)c1NC(=S)NC(=O)CC(C)C	inconclusive [inhibitor, single point]	–
COc1ncc2ncc(=O)n(Cc3ccc(F)cc3)c2n1	–	inactive: -2.57%
Cc1ccccc1NCC(=O)N=Nc1c(O)[nH]c2ccc([N+](=O)[O-])cc12	inconclusive [inhibitor, single point]	–
C[C@@H]1CN([C@@H](C)CO)C(=O)c2cc(Br)cnc2O[C@H]1CN(C)C(=O)c1ccncc1	–	inactive: 2.9%
COc1ccc2c(c1)Cc1sc(NC(=O)c3cccs3)nc1-2	inconclusive [inhibitor, partial curve, poor fit]	–
CSc1cccc(NC(=S)N2CCC(N(C)C3CCCCC3C)CC2)c1 (stereo unspecified)	–	inactive: 9.61%
CC1CC(=O)Nc2ccccc2N1C(=O)CSc1ncnc2sccc12 (stereo unspecified)	–	inactive: 13.3%
Clc1ccc(-c2csc(N/N=C/c3ccco3)n2)cc1	inconclusive [inhibitor, full curve, poor fit]	–
O=C(CSc1ccc(-c2ccccc2)nn1)c1cccs1	inconclusive [inhibitor, single point]	–
Cc1ccc2nc(N3CCN(c4cccc(Cl)c4)CC3)c(-n3nc(C)cc3C)nc2c1	inconclusive [inhibitor, single point]	–
Cc1cccc(C(=O)N[C@H](C(=O)Nc2nc(C)cs2)C(C)C)c1	active: 8.2 µM	–
COc1ccccc1CNC(=O)CN(C)CC(=O)Nc1cccc(F)c1	inconclusive [inhibitor, single point]	–
Cc1cc(C)c2c(=O)cc(CSCC(=O)Nc3ccccc3Cl)[nH]c2c1	–	inactive: -8.67%
CCOC(=O)CNC(=O)COc1coc(CN2CCN(c3ccccc3F)CC2)cc1=O	–	inactive: 2.21%
CC1CN(CCOc2ccc(Cl)c(Cl)c2)CC(C)O1 (stereo unspecified)	inconclusive [inhibitor, single point]	–
O=C(CSc1nncs1)Nc1ccc2[nH]c(=O)[nH]c2c1	–	inactive: 3.13%
O=C(CSc1nc(-c2ccccc2Cl)ns1)Nc1ccc2c(c1)OCO2	inconclusive [inhibitor, single point]	–
COC(=O)c1cc2sc(Cl)cc2n1CC(=O)Nc1ccc(OC)c(OC)c1OC	–	inactive: -7.61%
COc1cccc(Nc2nnc(SCc3cc([N+](=O)[O-])cc4c3OCOC4)s2)c1	inconclusive [inhibitor, partial curve, poor fit]	–
CSc1ccc(S(=O)(=O)N2CCC(C(=O)NCC3CCCO3)CC2)cc1 (stereo unspecified)	–	inactive: -5.15%
O=c1cnnc(N/N=C/c2ccccn2)[nH]1	active: 4.61 µM	–
Cc1ccc2cc(NC(=O)c3ccc(C(C)(C)C)cc3)ccc2n1	inconclusive [inhibitor, single point]	–
CN(Cc1cccs1)C(=O)Cn1cnc2cc([N+](=O)[O-])ccc2c1=O	inconclusive [inhibitor, partial curve]	–
COCCCNC(=O)c1ccc(NC(=O)c2nsc3ccccc23)cc1	inconclusive [inhibitor, single point]	–

Compound	Potency	activity change, negative = growth inhibition
CC1CCN(C(=S)c2ccc(-c3ccc(Cl)cc3Cl)o2)CC1	inconclusive [inhibitor, single point]	–
Cc1ccc(N2C(=O)CSC23C(=O)N(CC(=O)NCc2ccccc2)c2ccccc23)cc1C (stereo unspecified)	inconclusive [inhibitor, single point]	–
Cc1cccc(C)c1OCC(=O)NCC1(N(C)C)CCCCC1	–	inactive: -4.83%
CNC(=O)c1c(NC(=O)c2ccc(S(=O)(=O)N3CCC(C)CC3)cc2)sc2c1CCC2	inconclusive [inhibitor, single point]	–
CCCCCn1c(SCCc2ccccc2)nc2c1c(=O)[nH]c(=O)n2C	inconclusive [inhibitor, single point]	–
CCN(CCn1cccn1)C(=O)c1cc(COc2ccc(F)c(F)c2)on1	inconclusive [inhibitor, single point]	–
Cc1ccc(OCc2ccc(C(=O)Nc3cc(C)on3)o2)c([N+](=O)[O-])c1	inconclusive [inhibitor, single point]	–
CS(=O)(=O)c1ccc(-c2nnc(NC(=O)c3ccc4c(c3)OCCO4)o2)cc1	–	inactive: -17.5%
O=S(=O)(Nc1c(S(=O)(=O)c2ccccc2)c2nc3ccccc3nc2n1C1CCCCC1)c1ccccc1	active: 9.2 µM	–
C=CCc1cccc(/C=N/NC(=O)C[n+]2ccccc2)c1O	inconclusive [inhibitor, single point]	–
COc1ccc(CNS(=O)(=O)c2cnc(N)nc2)c(OC)c1	inconclusive [inhibitor, single point]	–
O=C(NNC(=O)c1cccc2ccccc12)c1ccc(-c2ccccc2)cc1	inconclusive [inhibitor, single point]	–
CC(=O)Nc1cc(-c2cccc(C(=O)NCCN(C)C)c2)cn2c(-c3cccc(C(F)(F)F)c3)cnc12	inconclusive [inhibitor, single point]	–
c1ccc(CNc2ncnc3c2oc2ccccc23)nc1	–	inactive: -12.1%
COCCn1c(SCC(=O)N2CCCc3ccccc32)nc2cccnc21	inconclusive [inhibitor, single point]	–
CC(=O)c1cc(NC(=O)c2ccc(Cl)cc2)c(=O)oc1/C=C/N(C)C	inconclusive [inhibitor, single point]	–
CCOc1ccc(OCCC(=O)OCC(=O)Nc2cccc(S(=O)(=O)N3CCCCC3)c2)cc1	inconclusive [inhibitor, partial curve]	–
Cn1cccc1C(=O)N1CCC2(CC1)CCN(c1cccc(-c3ccccc3)c1)CC2	active: 16.4 µM	–
CCOC(=O)C1=C(C)NC(=O)NC1c1ccccc1OCc1c(F)cccc1Cl (stereo unspecified)	active: 23.1 µM	–
CCc1nc2ccccc2n1CCCCOc1ccc(C)cc1	inconclusive [inhibitor, single point]	–
CC(=O)Nc1ccc(NC(=O)c2ccc(COc3ccccc3)cc2)cc1	–	inactive: -8.57%
CCC1CN(C(=O)N2CCC(C(=O)NCCN(CC)CC)CC2)c2cc(C)ccc2O1 (stereo unspecified)	–	inactive: -12.7%
COC(=O)[C@H](CC(C)C)NC(=O)N1CCCCC1C (stereo partly specified)	–	inactive: -20.3%
O=C(NCc1nc2ccccc2[nH]1)C1=C[C@H](C2CC2)C[C@H](OCCCCO)O1	–	inactive: -4.95%

Compound	Potency	activity change, negative = growth inhibition
COc1cccc(C2c3c(oc4ccccc4c3=O)C(=O)N2CCCN2CCOCC2)c1 (stereo unspecified)	inconclusive [inhibitor, partial curve]	–
CCOC(=O)CNC(=O)c1cc(-c2ccccn2)nc2c(C)c(Cl)ccc12	–	inactive: -14.9%
COc1ccc(/C=C/C(=O)NC(=S)N2CCN(c3ccccn3)CC2)cc1OC	inconclusive [inhibitor, partial curve, poor fit]	–
CC(=O)c1ccc(NC(=O)Cn2cc(S(=O)(=O)Cc3cccc(Cl)c3)c3ccccc32)cc1	active: 23.1 µM	–
O=S(=O)(c1ccccc1Br)N1CCN(c2nc(-c3cccs3)nc3ccccc23)CC1	inconclusive [inhibitor, single point]	–
Cc1cc(C(=O)N2CCc3ccccc32)c2ccccc2n1	inconclusive [inhibitor, single point]	–
Cc1cccc(CCNc2nc3ccc(C)cc3n3cnnc23)c1	–	inactive: -17.9%
CN(C)c1ccc(C=C2SC(=S)NC2=O)cc1	–	inactive: 0.277%
CCOc1cc(CNC(=O)c2sc3ncnc(N(C)C4CCCCC4)c3c2C)ccc1OC	inconclusive [inhibitor, single point]	–
O=[N+]([O-])c1ccccc1/C=C\C=N\N1CCN(c2ccccc2)CC1	inconclusive [inhibitor, single point]	–
CCOc1ccccc1CN1CCN(Cc2ccc(C)o2)C(CCO)C1 (stereo unspecified)	–	inactive: -19.1%
CO/N=C(/CNC(=O)c1ccc(F)cc1)c1ccc(Cl)cc1	inconclusive [inhibitor, single point]	–
O=C(NCCC1=CCCCC1)c1cc(S(=O)(=O)N2CCCCC2)ccc1Cl	inconclusive [inhibitor, single point]	–
COc1ccc(CNC(=O)C(=O)NCCC2CCCCN2S(=O)(=O)c2cccs2)cc1 (stereo unspecified)	inconclusive [inhibitor, single point]	–
COc1ccc(CC(=O)N2CCc3cc(OC)c(OC)cc3C2COc2ccc(OC)cc2)cc1 (stereo unspecified)	inconclusive [inhibitor, single point]	–
Cc1ccc2c(c1)-c1cc(C)nn1C(c1sccc1C)N2 (stereo unspecified)	inconclusive [inhibitor, single point]	–
CCN(C(=O)c1cc2c(s1)-c1c(C)cccc1OC2)c1ccccc1F	active: 20.6 µM	–
CCc1cc(=O)oc2c3c(c(Cl)cc12)OCN(Cc1cccc(OC)c1)C3	–	inactive: -23.7%
COc1ccc(N2CCN(C(=O)Cc3coc4cc(C)ccc34)CC2)cc1	–	inactive: -0.332%
O=C(Oc1cccc(N2C(=O)C3C4c5ccccc5C(c5ccccc54)C3C2=O)c1)c1ccco1 (stereo unspecified)	inconclusive [inhibitor, partial curve]	–
O=C(COC(=O)C1CC2C=CC1C2)Nc1cccc(S(=O)(=O)N2CCCCCC2)c1 (stereo unspecified)	inconclusive [inhibitor, single point]	–
COc1ccccc1NC(=O)Nc1nc(C(N)C(C)C)cs1 (stereo unspecified)	inconclusive [inhibitor, single point]	–
CC(C)Oc1ccc(CNC(=O)CCCN2C(=O)c3cccnc3Oc3ccc(Cl)cc32)cc1	inconclusive [inhibitor, single point]	–
